Measured values published in EPA's CvTdb concentration-time database.
The source gives many values for each of these; only a part stands here.

How the values were obtained:
Assay in all cases: concentration in plasma after dosing
Rat [1] = conditions: dosed: Perfluorohexane-1-sulphonic acid – potassium salt, 4 mg/kg, Female, F344
Rat [2] = conditions: dosed: Perfluorohexane-1-sulphonic acid – potassium salt, 32 mg/kg, oral, Male, F344
Rat [3] = conditions: 12 h; dosed: Perfluorohexane-1-sulphonic acid – potassium salt; 16 mg/kg; oral; Female; Harlan Sprague Dawley
Rat [4] = conditions: 6 h; dosed: Perfluorohexane-1-sulphonic acid – potassium salt; 16 mg/kg; oral; Female; Harlan Sprague Dawley
Rat [5] = conditions: 12 h; dosed: Perfluorohexane-1-sulphonic acid – potassium salt; 16 mg/kg; oral; Female; Harlan Sprague Dawley; remark: listed apart in the source
Rat [6] = conditions: dosed: Perfluorohexane-1-sulphonic acid – potassium salt, 32 mg/kg, oral, Female, Harlan Sprague Dawley
Rat [7] = conditions: 3 h; dosed: Perfluorohexane-1-sulphonic acid – potassium salt; 16 mg/kg; oral; Female; Harlan Sprague Dawley
Rat [8] = conditions: 3 h; dosed: Fluorotelomer alcohol 8+2; 24 mg/kg; oral; Male; Harlan Sprague Dawley
Rat [9] = conditions: dosed: Fluorotelomer alcohol 8+2, 24 mg/kg, oral, Male, Harlan Sprague Dawley
Rat [10] = conditions: dosed: Fluorotelomer alcohol 8+2, 80 mg/kg, oral, Female, Harlan Sprague Dawley
Rat [11] = conditions: dosed: Fluorotelomer alcohol 8+2, 160 mg/kg, oral, Female, Harlan Sprague Dawley
Rat [12] = conditions: dosed: Fluorotelomer alcohol 8+2, 160 mg/kg, oral, Female, Harlan Sprague Dawley; remark: listed apart in the source
Rat [13] = conditions: dosed: Fluorotelomer alcohol 8+2, 40 mg/kg, oral, Female, Harlan Sprague Dawley
Rat [14] = conditions: dosed: Fluorotelomer alcohol 8+2, 160 mg/kg, oral, Female, Harlan Sprague Dawley; remark: listed apart in the source
Rat [15] = conditions: 3 h; dosed: Fluorotelomer alcohol 8+2; 80 mg/kg; oral; Female; Harlan Sprague Dawley
Rat [16] = conditions: dosed: Fluorotelomer alcohol 8+2, 40 mg/kg, oral, Female, Harlan Sprague Dawley; remark: listed apart in the source
Rat [17] = conditions: 6 h; dosed: Fluorotelomer alcohol 8+2; 80 mg/kg; oral; Female; Harlan Sprague Dawley
Rat [18] = conditions: dosed: Fluorotelomer alcohol 8+2, 48 mg/kg, oral, Male, Harlan Sprague Dawley
Rat [19] = conditions: 0.5 h; dosed: Fluorotelomer alcohol 8+2; 24 mg/kg; oral; Male; Harlan Sprague Dawley
Rat [20] = conditions: dosed: Fluorotelomer alcohol 8+2, 40 mg/kg, oral, Female, Harlan Sprague Dawley; remark: listed apart in the source
Rat [21] = conditions: 192 h; dosed: Fluorotelomer alcohol 8+2; 80 mg/kg; oral; Female; Harlan Sprague Dawley
Rat [22] = conditions: dosed: Isoeugenol, 17 mg/kg, iv, Female, F344/N
Rat [23] = conditions: dosed: Isoeugenol, 17 mg/kg, iv, Male, F344/N
Rat [24] = conditions: dosed: Isoeugenol, 17 mg/kg, iv, Female, F344/N; remark: listed apart in the source
Rat [25] = conditions: dosed: Isoeugenol, 17 mg/kg, iv, Male, F344/N; remark: listed apart in the source
Rat [26] = conditions: dosed: Isoeugenol, 70 mg/kg, oral, Female, F344/N
Rat [27] = conditions: dosed: Isoeugenol, 140 mg/kg, oral, Male, F344/N
Rat [28] = conditions: dosed: Isoeugenol, 17 mg/kg, iv, Female, F344/N; remark: listed apart in the source
Rat [29] = conditions: dosed: Isoeugenol, 17 mg/kg, iv, Male, F344/N; remark: listed apart in the source
Rat [30] = conditions: dosed: Isoeugenol, 140 mg/kg, oral, Female, F344/N
Rat [31] = conditions: dosed: Isoeugenol, 17 mg/kg, iv, Male, F344/N; remark: listed apart in the source
Rat [32] = conditions: dosed: Isoeugenol, 17 mg/kg, iv, Female, F344/N; remark: listed apart in the source
Rat [33] = conditions: dosed: Isoeugenol, 140 mg/kg, oral, Female, F344/N; remark: listed apart in the source

O=S(=O)([O-])C(F)(F)C(F)(F)C(F)(F)C(F)(F)C(F)(F)C(F)(F)F.[K+] [Perfluorohexane-1-sulphonic acid – potassium salt]
Conditions	concentration in plasma [ng/mL]
Rat [1], 0.25 h	43000
Rat [1], 6 h	30700
Rat [1], 528 h	10100
Rat [2], 3 h	141000
Rat [2], 48 h	53100
Rat [2], 528 h	51.9
Rat [6], 0.25 h	72000
Rat [6], 12 h	151000
Rat [6], 192 h	8830

Conditions	concentration in plasma [ng/mL]
Rat [3]	79300
Rat [4]	82600
Rat [5]	84000
Rat [7]	95500

O=C(O)CCC(F)(F)C(F)(F)C(F)(F)C(F)(F)C(F)(F)C(F)(F)C(F)(F)F [Fluorotelomer acid 7+3]
Conditions	concentration in plasma [ng/mL]
Rat [8]	1620
Rat [15]	10700
Rat [17]	6100
Rat [19]	239
Rat [21]	388

Conditions	concentration in plasma [ng/mL]
Rat [9], 5 min	0.605
Rat [9], 9 h	340
Rat [10], 0.25 h	122
Rat [10], 24 h	1050
Rat [11], 0.25 h	79.7
Rat [11], 6 h	7350
Rat [12], 1 h	4710
Rat [12], 24 h	5640
Rat [13], 48 h	183
Rat [13], 192 h	83.6
Rat [14], 0.75 h	1400
Rat [14], 12 h	3070
Rat [16], 0.5 h	287
Rat [16], 9 h	1690
Rat [18], 1 h	751
Rat [18], 24 h	643
Rat [20], 1 h	1380
Rat [20], 24 h	482

C/C=C/c1ccc(O)c(OC)c1 [Isoeugenol]
Conditions	concentration in plasma [ng/mL]
Rat [22], 0.75 h	517
Rat [22], 6 h	19
Rat [23], 0.75 h	321
Rat [23], 2.5 h	73.8
Rat [24], 3 h	83.5
Rat [24], 10 min	4610
Rat [25], 0.75 h	405
Rat [25], 3 h	32
Rat [26], 2 min	194
Rat [26], 4 h	146
Rat [27], 2 min	1340
Rat [27], 6 h	308
Rat [28], 2 min	8460
Rat [28], 4 h	47.4
Rat [29], 1 h	176
Rat [29], 6 h	21.4
Rat [30], 6 h	785
Rat [30], 20 min	1980
Rat [31], 1.5 h	164
Rat [31], 10 min	4380
Rat [32], 1.5 h	135
Rat [32], 20 min	1880
Rat [33], 2 h	824
Rat [33], 10 min	1980
